From paper PMC4336329 (PLoS ONE, 2015) come the findings set out here.

SMILES strings stand for the structures. Among all 310,000 compounds or so, about 2,200 (0.71%) showed an effect of 50% or more. The effect is printed as a negative number. Some of the results follow.

In this test the target is human ether-à-go-go-related gene (hERG) potassium channel (human, UniProt Q12809). Description: primary screen, population patch clamp on CHO cells stably expressing hERG.
Sequence of human ether-à-go-go-related gene (hERG) potassium channel (Q12809 whole entry, looked up): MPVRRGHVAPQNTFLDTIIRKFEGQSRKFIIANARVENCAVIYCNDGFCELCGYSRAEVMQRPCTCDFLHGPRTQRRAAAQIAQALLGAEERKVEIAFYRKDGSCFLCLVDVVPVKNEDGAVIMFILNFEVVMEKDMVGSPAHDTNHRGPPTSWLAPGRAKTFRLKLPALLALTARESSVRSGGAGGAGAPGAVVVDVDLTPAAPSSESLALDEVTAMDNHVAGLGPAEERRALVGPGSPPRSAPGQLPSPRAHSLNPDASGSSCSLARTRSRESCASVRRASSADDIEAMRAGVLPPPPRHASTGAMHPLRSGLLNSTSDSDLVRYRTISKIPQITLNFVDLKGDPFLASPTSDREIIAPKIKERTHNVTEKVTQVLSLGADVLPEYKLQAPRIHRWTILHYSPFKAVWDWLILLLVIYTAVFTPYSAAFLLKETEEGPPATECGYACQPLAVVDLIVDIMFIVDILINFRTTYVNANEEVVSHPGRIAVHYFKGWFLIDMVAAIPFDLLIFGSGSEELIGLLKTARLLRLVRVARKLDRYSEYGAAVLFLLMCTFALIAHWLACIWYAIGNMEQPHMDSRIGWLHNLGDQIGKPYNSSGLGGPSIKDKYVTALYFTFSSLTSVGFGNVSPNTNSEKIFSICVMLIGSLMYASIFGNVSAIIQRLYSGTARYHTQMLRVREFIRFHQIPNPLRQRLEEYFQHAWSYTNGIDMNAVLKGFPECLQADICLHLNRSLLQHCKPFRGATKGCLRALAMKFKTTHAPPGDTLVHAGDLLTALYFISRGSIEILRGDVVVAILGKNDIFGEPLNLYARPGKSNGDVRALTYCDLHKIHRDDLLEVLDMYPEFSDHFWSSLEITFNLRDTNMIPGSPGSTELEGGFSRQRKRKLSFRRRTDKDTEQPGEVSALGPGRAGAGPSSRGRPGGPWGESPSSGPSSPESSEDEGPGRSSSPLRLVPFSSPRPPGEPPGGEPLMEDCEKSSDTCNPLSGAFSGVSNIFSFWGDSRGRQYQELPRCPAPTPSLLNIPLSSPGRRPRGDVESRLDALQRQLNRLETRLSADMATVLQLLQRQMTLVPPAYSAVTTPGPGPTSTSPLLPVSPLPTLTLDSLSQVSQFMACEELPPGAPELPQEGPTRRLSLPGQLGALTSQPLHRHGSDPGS
With `COc1cccc(C(=O)C2CCCN(C/C=C/c3ccccc3OC)C2)c1` (stereo not shown), the “hERG current change (%, negative = inhibition) at 1uM” value is recorded as -2.82%.
As for `CCOC(=O)C1=C(c2ccccc2)O/C(=C(\C(=O)OC)C(F)(F)F)S1`, the figure is 8.55%.
Turning to `CC1(C)CC(Nc2ccc(Nc3ccccc3)cc2)CC(C)(C)N1`, the “hERG current change (%, negative = inhibition) at 1uM” value is listed as 11%.
The result for `O=C(Nc1nnc(S(=O)(=O)N2CCOCC2)s1)c1cccc(Br)c1` reads 20.4%; that for `CN1CCN(C(=O)C2=C[C@@H](c3csc4ccccc34)C[C@@H](OCCCCO)O2)CC1`, -5.03%; that for `CCOc1ccc(CCNC(=O)CCc2nnc3ccc(N4CCCCC4)nn23)cc1OCC`, 5.98%.
As for `CCN(C(=O)CN1C(=O)S/C(=C\c2ccc(Cl)cc2)C1=O)C1CCS(=O)(=O)C1` (stereo not shown), the figure is 9.44%; as for `O=c1cc(CO)oc(C(Nc2cccc(C(F)(F)F)c2)c2ccccn2)c1O` (stereo not shown), 15.8%.
The result for `Cc1nnsc1C(=O)Nc1ccc(Cl)cc1Cl` reads 12.4%; that for `O=C(Nc1ccc(-c2nc3ccccc3o2)cc1)c1cc(-n2cnnc2)ccc1Cl`, 6.74%.
For the compound `O=C(Nc1ccc(F)cc1)c1cc(Cl)sc1Cl`, the “hERG current change (%, negative = inhibition) at 1uM” value is -5.88%.
As for `CCN(CC(=O)N1CCCC1)S(=O)(=O)c1ccc(OC)cc1`, the figure is 21.1%; as for `CC(=O)c1cccc(NC(=O)CSc2nc(=O)n(CCN3CCOCC3)c3c2CCCC3)c1`, -2.06%.
The result for `CC(C)Cc1nnc(NC(=O)CN2C(=O)C3CCCCC3C2=O)s1` (stereo not shown) reads 0.443%; that for `O=S(=O)(CC(CN1CCCC1)N1CCCC1)c1ccc2ccccc2c1` (stereo not shown), -2.72%.
Take `CC(C)(C)c1ccc(OCCN2CCCC2)cc1`: the “hERG current change (%, negative = inhibition) at 1uM” value worked out at 3.23%.
As for `CC(C)(CCl)C(=O)Nc1ccc(Sc2ccc(F)cc2)cc1`, the figure is 7.93%.
In the case of `O=C(Nc1ccc(F)cc1)C1CCCN(S(=O)(=O)c2cccc3nonc23)C1` (stereo not shown), the “hERG current change (%, negative = inhibition) at 1uM” value is 10.6%.
The result for `N#CC1=C(O)C(c2ccccc2)n2c1nc(=O)c1ccccc12` (stereo not shown) reads -14.6%; that for `CC1CC(OP(O)(=S)c2ccc(N(C)C)cc2NC(=O)c2cccs2)CC(C)(C)C1` (stereo not shown), 9.54%; that for `COC(=O)c1oc2nc(C)cc(C)c2c1N`, 4.2%.
As to `COc1ccc(C2=NS(=O)(=O)N(C)C(C(=O)N(C)Cc3ccccc3)=C2)cc1OC`, the “hERG current change (%, negative = inhibition) at 1uM” value came out at 7.11%.
The result for `C=CCN1C(=O)/C(=C/c2ccc(OC)cc2)S/C1=N/c1nccs1` reads 6.85%.
The result for `O=C(CSc1ncccn1)NC(=O)NCc1ccco1` reads 5.01%; that for `COC(=O)c1cccc(NC(=O)CN(c2ccc3c(c2)OCO3)S(C)(=O)=O)c1C`, 10.6%; that for `CCc1nnc(NC(=O)CN2CCN(c3ccccc3OC)CC2)s1.Cl`, -10.5%.
The result for `CC1CC(=O)c2cn3c(nc2C1)nc1ccccc13` (stereo not shown) reads 0.565%.
As for `O=C(NCc1ccccc1)C1CCN(S(=O)(=O)c2cccc3cccnc23)CC1`, the “hERG current change (%, negative = inhibition) at 1uM” value is recorded as 4.08%.
The result for `CC(=O)Nc1ccc(NS(=O)(=O)c2cc(C)sc2C)cc1` reads 5.82%; that for `CCOC(=O)C1CCN(C(=O)COC(=O)c2cccc(F)c2)CC1`, 2.2%; that for `CC12CN3CC(=O)N4CC5(C)CN(CC(C)(C4)C5=O)C(=O)CN(C1)CC(C)(C3)C2=O`, 17.5%.
Take `O=C(NCCN1CCCCCC1)C1CC(=O)N(CCc2ccccc2)C1` (stereo not shown): the “hERG current change (%, negative = inhibition) at 1uM” value came out at 11.3%.
Consider `Cc1ccc(OCCNC(=O)c2cc(-n3cnnc3)ccc2Cl)cc1C`, for which the “hERG current change (%, negative = inhibition) at 1uM” value was found to be 3.63%.
Turning to `CCCOP(=O)(c1ccc(N(C)C)cc1)C(O)c1cccnc1` (stereo not shown), the “hERG current change (%, negative = inhibition) at 1uM” value turned out to be 3.22%.
The result for `O=C(NCc1ccc(Cl)cc1)C1CCCN(c2cnccn2)C1` (stereo not shown) reads -40%; that for `CCCn1c2ccc(F)cc2c2nnc(SCCN3CCOCC3)nc21`, 1.29%.
With `O=C(NCC1(c2ccccc2)CCCC1)c1cccc(Br)c1`, the “hERG current change (%, negative = inhibition) at 1uM” value was 12.7%.
The result for `COc1ccc(-c2noc(CN(C(=O)c3ccoc3C)C(C)C)n2)cc1` reads 14.8%; that for `Brc1c(CSc2nc3ccccc3o2)nc2ncccn12`, -22.5%.
The result for `Cc1ccc(NC(=O)CSc2nnc(-c3ccc(S(=O)(=O)N4CCOCC4)cc3)n2C)cc1` reads -14.6%.
Regarding `CCOc1cccc(-c2nnc3sc(-c4cc(OC)c(OC)c(OC)c4)nn23)c1`, the “hERG current change (%, negative = inhibition) at 1uM” value is on record as -3.2%.
The result for `CCOC(=O)[C@@H]1[C@H]2COc3cc(OC)ccc3[C@@H]2N2C(=O)N(c3ccc(OC)cc3)C(=O)[C@]12C` reads 11.7%; that for `O=c1c(Cc2ccccc2)c(O)nc2n1CCS2`, 17%.
The result for `O=C(Nc1ccc(Cl)c(Cl)c1)C1=Cc2ccccc2OC1` reads 14%; that for `NNC(=O)c1ccc(COc2ccc3ccccc3c2)o1`, 17.8%.
Turning to `C=CCNC(=O)c1ccc2c(c1)N(CC)C(=O)c1ccccc1S2`, the “hERG current change (%, negative = inhibition) at 1uM” value was 9.08%.
The result for `NC(=O)COC(=O)c1ccc(-c2ccc(O)cc2)cc1` reads 3.18%.
With `CC(NC(=O)CCc1nnc(-c2ccccc2)o1)c1ccccc1` (stereo not shown), the “hERG current change (%, negative = inhibition) at 1uM” value is on record as 13.8%.
The result for `CCOc1ccc(N(CC(=O)N/N=C/c2ccc(OC(C)C)cc2)S(C)(=O)=O)cc1` reads 14.9%; that for `CCC(=O)C1CCCN(C(=O)c2cccc(OC3CCN(S(C)(=O)=O)CC3)c2)C1` (stereo not shown), 18.4%; that for `Cc1cc(C)c2nc(NNC(=O)c3ccc(S(=O)(=O)N4CC(C)CC(C)C4)cc3)sc2c1` (stereo not shown), 13.2%.
The result for `CCCCN(c1ccccc1)S(=O)(=O)N(C)C` reads 10.7%; that for `Cc1c(OC(C)C(=O)NCC2CCC(C(=O)O)CC2)ccc2c(-c3ccccc3)cc(=O)oc12` (stereo not shown), 13.9%; that for `CCCOC(=O)c1ccc(-n2nnnc2SCC(=O)N2CCCCC2)cc1`, 5%.
Take `CC(C)C(=O)NCCn1ccc2ccccc21`: the “hERG current change (%, negative = inhibition) at 1uM” value was -0.544%.
The result for `CC(C)(C)c1ccccc1NC(=S)NCc1ccccc1` reads 9.94%.
`CCNc1nc(OC)nc(N2CCC(Cc3ccccc3)CC2)n1`: the “hERG current change (%, negative = inhibition) at 1uM” value came out at 8.94%.
The result for `Cc1cc(C)cc(C(=O)NC(CC(N)=O)c2ccc(NC3CCCCCCC3)c([N+](=O)[O-])c2)c1` (stereo not shown) reads 1.08%; that for `CCC(=O)N(CCC(c1ccccc1)c1ccco1)Cc1cccs1` (stereo not shown), 1.53%.
Consider `O=S(=O)(Cc1cc(NCc2ccccc2)nc(-c2ccncc2)n1)c1ccccc1`, for which the “hERG current change (%, negative = inhibition) at 1uM” value is 15.3%.
Regarding `Cn1ccnc1Sc1nc(Nc2cccc(Cl)c2)nc(N2CCOCC2)n1`, the “hERG current change (%, negative = inhibition) at 1uM” value is -11.7%.
For the compound `Cc1ccccc1C(=O)N1CCC(C(=O)Nc2ccc3c(c2)OCO3)CC1`, the “hERG current change (%, negative = inhibition) at 1uM” value is 7.7%.
As for `COc1ccc(Nc2cc(C)nc(N3CCOCC3)n2)cc1`, the figure is 1.79%; as for `CCN(CC)CCOC(=O)c1ccc(NC(=O)CCCN2C(=O)/C(=C\c3cccs3)SC2=S)cc1`, 7.28%.
The result for `CCN(CC)C(=O)CSC1=C(C#N)C(c2cccs2)C=C(C)N1` (stereo not shown) reads 12%; that for `Cc1ccc(C)c(N2CCN(C(=O)CCNC(=O)Cn3ccc4ccccc4c3=O)CC2)c1`, 12.5%.
The result for `CCOC(=O)CSc1nc2c([nH]c3ccccc32)c(=O)n1C` reads 16%; that for `CCOC(=O)c1cnc2c(OC)cccc2c1NCc1cccnc1`, -68.1%.
With `COc1ccc(-c2ccc(SCC(=O)N3CCCC3)nn2)cc1OC`, the “hERG current change (%, negative = inhibition) at 1uM” value was -2.21%.
The result for `CC(C)CNC(=O)COC(=O)c1cc(S(=O)(=O)N2CCCCC2)ccc1N1CCOCC1` reads -8.88%; that for `Cc1cc(C)c(C)c(S(=O)(=O)N2CCN(C(=O)C3CSC4(C)CCC(=O)N34)CC2)c1C` (stereo not shown), 14.2%; that for `COc1ccc(CNC(=O)Cn2cc([N+](=O)[O-])nc2C)cc1`, 11.8%.
In the case of `CCOC(=O)c1c(NC(=O)c2cc(C)oc2C)sc(C(=O)Nc2ccc(Cl)cc2)c1C`, the “hERG current change (%, negative = inhibition) at 1uM” value worked out at 18.1%.
The result for `CCS(=O)(=O)c1nc(S(=O)(=O)c2ccc(Cl)cc2)c(N2CCOCC2)s1` reads 17.1%; that for `O=C(NCC1OCCc2ccccc21)c1cc(COc2ccc(F)cc2Cl)on1` (stereo not shown), 6.87%.
As for `Cc1cccc(C)c1NC(=O)C(c1ccc(Cl)cc1Cl)N1CCCCC1` (stereo not shown), the figure is 11.5%.
As for `Cc1c(C(=O)N2CCC(C(N)=O)CC2)sc(N)c1C#N`, the figure is 8%; as for `Cc1ccc(CCN2CC(C(=O)NC(C)C)CC2=O)cc1` (stereo not shown), 14.9%.
With `O=C(Nc1ccccc1N1CCCC1)c1cccc(Cl)c1Cl`, the “hERG current change (%, negative = inhibition) at 1uM” value stood at 10.3%.
For `O=C(c1ccc(F)cc1)N1CCN(Cc2ccccc2Br)CC1`, the “hERG current change (%, negative = inhibition) at 1uM” value came out at 5.9%.
The result for `O=C(CCc1nc2ccccc2[nH]1)NC1CCCCC1` reads 12.8%; that for `CC(C)c1ccc(NC(=O)CSc2nnc(-c3ccccn3)n2C)cc1`, -4.65%.
As for `CC(=O)N1CC2(C)CN(C(C)=O)CC(C)(C1)C2`, the figure is 23.7%; as for `CCCC(=O)Nc1ccc(C(=O)N/N=C/c2ccc[nH]2)cc1`, 15.7%.
As for `COc1ccc(C2(CNC(=O)C(=O)Nc3ccc(C)cc3)CCOCC2)cc1`, the figure is 13.4%; as for `CC(C)(C)OC(=O)[C@H](Cc1ccccc1)NC(=O)c1nc[nH]c1C(=O)N1CCN(c2ccccc2)CC1`, 9.51%.
In the case of `O=C(NCc1cccnc1)c1cc(C(=O)C2CC2)c[nH]1`, the “hERG current change (%, negative = inhibition) at 1uM” value is listed as 10.7%.
The result for `CCOC(=O)CN1C(=O)C(Sc2n[nH]c(-c3ccc(C)cc3)n2)CCc2ccccc21` (stereo not shown) reads 5.54%.
